PubChem BioAssay AID686979 (National Center for Advancing Translational Sciences (NCATS), 2013)
“And” between values parts separate entries of the source, which are not always exact repeats. Equal entries are not always repeated. Among all 420,000 compounds or so, about 50,000 (12%) were called active. The shares of active, inactive and inconclusive entries below differ from those in the screen. Calls follow the shape of the dose curve; as a rule, active = well fitted inhibition curve with a large enough effect; inconclusive = small, poorly fitted or top-dose-only effect; inactive = flat fitted curve, though single readings scatter. Where the call is inconclusive, the potency comes from a doubtful curve fit.
% is scaled to controls: 0 for no effect and ±100 for the full control effect; potency is read from the fitted curve at half-maximal effect; tags tell the direction and shape of the fitted curve.

Assay: qHTS for Inhibitors of human tyrosyl-DNA phosphodiesterase 1 (TDP1): qHTS in cells in presence of CPT; also: nearly all actives have a fitted effect of over 55% in size
Settings: chicken DT40 Tdp1-/-;hTDP1 cells + 20 nM CPT, ATP luminescence, 48 h; activity change, negative = growth inhibition: at 46.2 µM (top of the series) unless noted
Summary of the method: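 Chicken DT40 Tdp1-/- cells stably complemented with human TDP1 were seeded at 400 cells/well in medium containing 20 nM camptothecin, exposed to pin-transferred compounds, and grown at 37 °C for at least 48 hr. Viability was read as ATP luminescence.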
For `COc1ccc2c(c1)C(SCC(=O)NCCc1ccccc1)CC(C)(C)O2` (centres undefined), the Potency was inconclusive: 23.1 µM [inhibitor, single point]. With `CC1CCC(NC(=O)CCCn2sc3ccccc3c2=O)CC1` (centres undefined) the Potency was inconclusive: 29.1 µM [inhibitor, single point]. For `CCC(=O)N(CC(=O)Nc1sc(C)c(C)c1C(N)=O)C1CCCCC1`, the Potency was inconclusive: 20.6 µM [inhibitor, single point]. With `COc1ccc(-c2ccc(NS(=O)(=O)c3cccc(Cl)c3)cc2)nn1` the Potency was inconclusive: 16.4 µM [inhibitor, single point]. In the case of `O=C(CCc1cn(Cc2ccccc2F)c2ccccc12)NCc1ccc(Cl)cc1`, the Potency is reported as inconclusive: 13 µM [inhibitor, partial curve]. With `CCOC(=O)c1nc(Nc2ccc(C(=O)OCC(C)C)cc2)c2ccccc2n1` the Potency was active: 6.51 µM. With `CCCC1=Nc2cc(C(=O)NCCCN3CCN(C)CC3)ccc2Sc2ccccc21` the Potency was inconclusive: 29.1 µM [inhibitor, single point]. With `COC(=O)c1cc(Br)c(=O)n(CCN(C(C)C)C(C)C)c1` the “activity change, negative = growth inhibition” value was inactive: -26.2%. For `Nc1ccc(C(=O)N/N=C/c2cn(Cc3cccc(F)c3)c3ccccc23)cc1`, the Potency was inconclusive: 29.1 µM [inhibitor, single point]. For `CN1CCN(CCCC(=O)c2ccc(F)cc2)CC1`, the “activity change, negative = growth inhibition” value was inactive: -3.29%. In the case of `Cc1ccnc(NC(=O)c2ccc(S(=O)(=O)c3ccccc3)cc2)c1`, the “activity change, negative = growth inhibition” value is reported as inactive: -5.17%. In the case of `COc1ccc(N2CCN(C(=O)c3cc(S(=O)(=O)N4CCCCCC4)cn3C)CC2)cc1`, the Potency is reported as inconclusive: 25.9 µM [inhibitor, single point]. With `CCOc1cccc2sc(=NC(=O)CCS(=O)(=O)c3ccccc3)n(CC)c12` the Potency was inconclusive: 29.1 µM [inhibitor, single point]. With `O=C(Nc1ccc(N2CCOCC2)c(Cl)c1)c1cc2ccccc2o1` the Potency was active: 14.6 µM. For `O=Cc1ccc(-c2ccccc2OC(F)(F)F)o1`, the Potency was inconclusive: 18.4 µM [inhibitor, single point]. In the case of `c1ccc(N2CCN(c3ncnc4sc5c(c34)CCC5)CC2)cc1`, the Potency is reported as active: 20.6 µM. In the case of `CC(C)CCC(CCN1CCOCC1)c1ccc2c(c1)OCO2` (centres undefined), the Potency is reported as inconclusive: 29.1 µM [inhibitor, single point]. With `O=C(NC1CC1)c1ccc(NS(=O)(=O)c2ccc(F)cc2)cc1` the “activity change, negative = growth inhibition” value was inactive: 3.44%. For `CN(C)c1ccc(-c2cncnc2Nc2ccc(F)cc2)cc1`, the Potency was inconclusive: 29.1 µM [inhibitor, single point]. With `C=C1C(O)[C@@H]2O[C@]3(CC[C@H](/C=C/C(C)[C@@H]4CC(C)=CC5(O[C@H](C[C@@](C)(O)CO)CCC5O)O4)O3)CC[C@H]2O[C@@H]1C(O)CC(C)[C@H]1OC2(CCCCO2)CCC1C` (some centres undefined) the Potency was active: 1.46 µM. For `O=C(N/N=C/c1cc(Br)c(Br)o1)C(O)c1ccccc1` (centres undefined), the Potency was inconclusive: 16.4 µM [inhibitor, single point]. In the case of `O=C(CSc1nnc(-c2ccc(F)cc2)c2ccccc12)Nc1c(F)cccc1F`, the Potency is reported as inconclusive: 25.9 µM [inhibitor, single point]. For `Cc1ccc(S(=O)(=O)N2C[C@@H](C)[C@]3(C2)[C@H](O)[C@H](OC(=O)NC2CCCC2)C[C@H]2C(=O)N(c4ccccc4)C(=O)[C@H]23)cc1`, the “activity change, negative = growth inhibition” value was inactive: -18.5%. In the case of `COc1cccc(Cn2c(=O)n(-c3ccc(C)c(F)c3)c(=O)c3sc4ccccc4c32)c1`, the Potency is reported as inconclusive: 20.6 µM [inhibitor, partial curve, poor fit]. For `COc1ccc(N/C(N)=N/c2nc(CSc3ccc(Cl)cc3)cc(=O)[nH]2)cc1`, the Potency was inconclusive: 20.6 µM [inhibitor, partial curve, poor fit]. In the case of `CN1CCN(c2nc(-c3cccnc3)nc3scc(-c4ccccc4)c23)CC1`, the Potency is reported as inconclusive: 29.1 µM [inhibitor, single point]. In the case of `O=C(Cn1cnc2cc([N+](=O)[O-])ccc2c1=O)Nc1ccccc1Cl`, the Potency is reported as inconclusive: 18.4 µM [inhibitor, partial curve]. With `CCOc1ccc(NC(=O)Cn2cc(C(=O)CC)c3ccccc32)cc1` the Potency was active: 13 µM. For `COc1cccc(C(=O)CC(=O)C(=O)Nc2cc(Cl)c(OC)cc2OC)c1`, the Potency was inconclusive: 29.1 µM [inhibitor, single point]. With `Cc1ccc(OCC(=O)N2CCN(C(=O)c3ccncc3)CC2)cc1` the “activity change, negative = growth inhibition” value was inactive: 8.27%. In the case of `COc1ccccc1-c1nnc(SC2CCc3ccccc3NC2=O)s1` (centres undefined), the Potency is reported as inconclusive: 29.1 µM [inhibitor, single point]. For `COc1cccc(OC)c1C(=O)Nc1nnc(C)s1`, the “activity change, negative = growth inhibition” value was inactive: 4.32%. For `O=S(=O)(c1ccccc1)N1CCN(S(=O)(=O)c2ccccc2)CC1`, the “activity change, negative = growth inhibition” value was inactive: 16.6%. In the case of `CCc1ccc(NC(=O)C(C)OC(=O)Cc2cc(OC)c(OC)c(OC)c2)cc1` (centres undefined), the Potency is reported as inconclusive: 29.1 µM [inhibitor, single point]. For `CCCCNc1c(-c2ccc(-c3ccc(OC)cc3)c(OC)c2)nc2ccccn12`, the Potency was active: 18.4 µM. In the case of `Cc1cc([N+](=O)[O-])cc(/C=N/n2c(C)nc3ccccc3c2=O)c1O`, the Potency is reported as inconclusive: 25.9 µM [inhibitor, single point]. With `COc1cc(C(=O)O/N=C(\N)c2ccncc2)cc(OC)c1OC` the Potency was inconclusive: 29.1 µM [inhibitor, single point]. For `COc1ccc(CNC(=O)C2CCN(Cc3nc(-c4ccc(OC)c(OC)c4)oc3C)CC2)cc1`, the Potency was inconclusive: 23.1 µM [inhibitor, single point]. For `CCCS(=O)(=O)NC(=O)C1(C)CCN(C(=O)c2ccnc(Cl)c2)C1` (centres undefined), the “activity change, negative = growth inhibition” value was inactive: -3.48%. With `CCN(CC)CCCNC(=O)C1c2ccccc2Oc2ccccc21` the “activity change, negative = growth inhibition” value was inactive: 7.91%. In the case of `S=C(c1ccc(-c2ccccc2Cl)o1)N1CCCCC1`, the Potency is reported as inconclusive: 18.4 µM [inhibitor, single point]. With `COc1cc2cc[n+](Cc3ccc([N+](=O)[O-])cc3)cc2cc1OC` the Potency was active: 18.4 µM. With `Cc1cc(C(C)(C)C)c(O)c(C(C)(C)C)c1` the Potency was “inactive and inconclusive: 25.9 µM [inhibitor, single point]”. With `Cc1cc(Nc2ccccc2)n(-c2cccc(Cl)c2)n1` the Potency was inconclusive: 16.4 µM [inhibitor, partial curve].
